Data from PubChem BioAssay AID248 (DTP/NCI, 2004).
Toxic doses and inconclusive results are not listed. For part of its entries the source gives two or more results. The other results are left out here. An entry can have further records. The records of an entry repeat one measurement across runs, samples, wells, individuals or studies.

Tested on: L1210 leukemia ip in BDF1 mice, survival T/C
Assay: NCI In Vivo Anticancer Drug Screen. Data for tumor model L1210 Leukemia (intraperitoneal) in B6D2F1 (BDF1) mice
Conditions: endpoint: mean survival time, higher = longer survival
[1] = dose: 200.0 mg/kg/injection, schedule: Q01DX009 (ip), vehicle: saline

COc1cc([C@@H]2c3cc4c(cc3C[C@H]3COC(=O)[C@@H]32)OCO4)cc(OC)c1OC
T/C (dose: 100.0 mg/kg/injection, schedule: Q01DX001 (ip), vehicle: saline): 121 % of control and 151 % of control

O=NN(CCCl)C(=O)NC1CCS(=O)(=O)CC1
T/C (dose: 25.0 mg/kg/injection, schedule: Q01DX001 (ip), vehicle: carboxymethylcellulose (CMC)): 111 % of control and 166 % of control

C[SH+]c1ccccc1N=Cc1ccccn1.C[SH+]c1ccccc1N=Cc1ccccn1.[Ni+2].[O-][Cl+3]([O-])([O-])[O-]
T/C (dose: 200.0 mg/kg/injection, schedule: Q01DX001 (ip), vehicle: saline): 95 % of control, 102 % of control, 175 % of control

CCCCCCC(C)OC(=O)CCCc1ccc(N(CCCl)CCCl)cc1 (stereo not drawn)
T/C [1]: 106 % of control and 158 % of control

CS(=O)(=O)OCCN(CCOS(C)(=O)=O)c1ccc(C=Nc2ccc3ccccc3c2)cc1
T/C (dose: 80.0 mg/kg/injection, schedule: Q04DX003 (ip), vehicle: Klucel (hydroxypropylcellulose) (HPC)): 124 % of control and 152 % of control

N=C(N)Cc1ccc(NC(=O)c2ccc(C(=O)Nc3ccc(CC(=N)N)cc3)cc2)cc1
T/C (dose: 75.0 mg/kg/injection, schedule: Q01DX001 (ip), vehicle: carboxymethylcellulose (CMC)): 121 % of control and 162 % of control

O=C(Nc1ccc(C2=NCCN2)cc1)c1cc(C(=O)Nc2ccc(C3=NCCN3)cc2)ncn1
T/C (dose: 15.0 mg/kg/injection, schedule: Q01DX015 (ip), vehicle: methylcellulose (MC)): 120 % of control and 162 % of control

CCN(CCNc1ccc(C)c2sc3ccccc3c(=O)c12)CC(C)(C)O
T/C [1]: 124 % of control and 162 % of control

O=C(O)C1C(C(=O)O)C2(Cl)C(Cl)=C(Cl)C1(Cl)C2(Cl)Cl.[Co] (stereo not drawn)
T/C (dose: 50.0 mg/kg/injection, schedule: Q01DX009 (ip), vehicle: saline sonified): 113 % of control and 176 % of control

Nc1nc(N)c2nc(CNc3ccc(C(=O)NC(CCC(=O)O)C(=O)O)cc3)cnc2n1 (stereo not drawn)
T/C (dose: 0.05 mg/kg/injection, schedule: Q01DX Z (ip), vehicle: saline): 120 % of control and 151 % of control | T/C (dose: 0.12 mg/kg/injection, schedule: Q01DX Z (ip), vehicle: saline): 93 % of control, 114 % of control, 174 % of control | T/C (dose: 0.2 mg/kg/injection, schedule: Q01DX010 (ip), vehicle: other): 113 % of control and 161 % of control

CCOC(=O)C(=CNc1ccc(OC)cc1[N+](=O)[O-])C(=O)OCC
T/C (dose: 50.0 mg/kg/injection, schedule: Q01DX009 (ip), vehicle: saline with Tween-80): 87 % of control and 177 % of control
